Test results published in US20040110688A1 (SAINT LOUIS UNIVERSITY, published 2004).

B1: DEGR-IXaR333L (enzyme)
chain 1: YNSGKLEEFVQGNLERECMEEKCSFEEAREVFENTERTTEFWKQYVDGDQCESNPCLNGGSCKDDINSYECWCPFGFEGKNCELDVTCNIKNGRCEQFCKNSADNKVVCSCTEGYRLAENQKSCEPAVPFPCGRVSVSQTSKLTR
chain 2: [omitted - about 250 residues with changes]
modifications: active site blocked with dansyl-Glu-Gly-Arg-chloromethyl ketone (DEGR-ck); gamma-carboxyglutamic acid residues in the Gla domain (11.5 to 12.5 per mol)
B2: DEGR-IXaD332Y (enzyme)
chain 1: B1 chain 1
chain 2: [omitted - about 250 residues with changes]
modifications: active site blocked with dansyl-Glu-Gly-Arg-chloromethyl ketone (DEGR-ck); gamma-carboxyglutamic acid residues in the Gla domain (11.5 to 12.5 per mol)
B3: DEGR-IXaL337I (enzyme)
chain 1: B1 chain 1
chain 2: [omitted - about 250 residues with changes]
modifications: active site blocked with dansyl-Glu-Gly-Arg-chloromethyl ketone (DEGR-ck); gamma-carboxyglutamic acid residues in the Gla domain (11.5 to 12.5 per mol)
B4: DEGR-IXaR333Q (enzyme)
chain 1: B1 chain 1
chain 2: [omitted - about 250 residues with changes]
modifications: active site blocked with dansyl-Glu-Gly-Arg-chloromethyl ketone (DEGR-ck); gamma-carboxyglutamic acid residues in the Gla domain (11.5 to 12.5 per mol)
B5: DEGR-IXaL330I (enzyme)
chain 1: B1 chain 1
chain 2: [omitted - about 250 residues with changes]
modifications: active site blocked with dansyl-Glu-Gly-Arg-chloromethyl ketone (DEGR-ck); gamma-carboxyglutamic acid residues in the Gla domain (11.5 to 12.5 per mol)
B6: DEGR-IXaT335A (enzyme)
chain 1: B1 chain 1
chain 2: [omitted - about 250 residues with changes]
modifications: active site blocked with dansyl-Glu-Gly-Arg-chloromethyl ketone (DEGR-ck); gamma-carboxyglutamic acid residues in the Gla domain (11.5 to 12.5 per mol)
B7: DEGR-IXaR338Q (enzyme)
chain 1: B1 chain 1
chain 2: [omitted - about 250 residues with changes]
modifications: active site blocked with dansyl-Glu-Gly-Arg-chloromethyl ketone (DEGR-ck); gamma-carboxyglutamic acid residues in the Gla domain (11.5 to 12.5 per mol)

Each binder was assayed against T1, factor VIIIa (human, UniProt P00451 20-2351) (assay: Kd,app from inhibition of Xa generation; with phospholipid).
T1 sequence (looked up): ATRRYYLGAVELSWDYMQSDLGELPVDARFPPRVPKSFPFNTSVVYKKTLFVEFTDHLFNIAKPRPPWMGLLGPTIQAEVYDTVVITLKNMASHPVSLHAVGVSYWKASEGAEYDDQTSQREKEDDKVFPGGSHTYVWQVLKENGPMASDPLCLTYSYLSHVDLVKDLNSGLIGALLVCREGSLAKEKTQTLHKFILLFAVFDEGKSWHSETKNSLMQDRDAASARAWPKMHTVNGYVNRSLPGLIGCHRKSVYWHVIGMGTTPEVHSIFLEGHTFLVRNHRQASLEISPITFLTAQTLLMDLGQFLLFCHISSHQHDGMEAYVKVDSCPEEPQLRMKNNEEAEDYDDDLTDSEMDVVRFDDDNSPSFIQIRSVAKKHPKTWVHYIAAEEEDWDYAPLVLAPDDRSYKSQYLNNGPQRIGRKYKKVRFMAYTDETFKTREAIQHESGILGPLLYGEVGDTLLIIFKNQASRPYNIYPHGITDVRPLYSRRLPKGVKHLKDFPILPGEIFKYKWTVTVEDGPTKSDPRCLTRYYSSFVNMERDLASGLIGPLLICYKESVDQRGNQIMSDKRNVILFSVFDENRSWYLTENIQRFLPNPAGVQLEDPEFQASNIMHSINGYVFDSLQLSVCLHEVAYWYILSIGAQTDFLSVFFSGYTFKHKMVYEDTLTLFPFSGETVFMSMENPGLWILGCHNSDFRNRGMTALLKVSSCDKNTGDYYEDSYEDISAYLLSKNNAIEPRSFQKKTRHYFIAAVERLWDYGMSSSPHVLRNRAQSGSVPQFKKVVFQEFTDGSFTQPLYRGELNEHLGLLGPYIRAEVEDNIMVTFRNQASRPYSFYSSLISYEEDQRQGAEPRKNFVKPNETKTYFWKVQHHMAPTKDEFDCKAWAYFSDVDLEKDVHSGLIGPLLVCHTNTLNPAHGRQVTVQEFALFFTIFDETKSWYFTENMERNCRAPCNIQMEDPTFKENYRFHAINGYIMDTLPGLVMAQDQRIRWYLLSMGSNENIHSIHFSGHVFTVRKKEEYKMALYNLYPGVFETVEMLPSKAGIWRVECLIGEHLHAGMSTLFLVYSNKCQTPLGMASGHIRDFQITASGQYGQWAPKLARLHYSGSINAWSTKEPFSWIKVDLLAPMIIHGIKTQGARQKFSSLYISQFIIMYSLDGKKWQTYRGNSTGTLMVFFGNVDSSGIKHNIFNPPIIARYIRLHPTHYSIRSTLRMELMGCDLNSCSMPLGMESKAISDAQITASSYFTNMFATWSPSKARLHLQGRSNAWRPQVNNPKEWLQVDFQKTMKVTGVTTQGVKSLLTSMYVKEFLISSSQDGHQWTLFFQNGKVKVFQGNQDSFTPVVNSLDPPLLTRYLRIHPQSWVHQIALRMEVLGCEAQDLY

Row | Binder | fold-reduction in affinity compared with DEGR-IXaWT [fold]
1 | B1 | 149
2 | B2 | 52
3 | B3 | 91
4 | B4 | 130

The binders below were run against T1, factor VIIIa (assay: Kd,app from inhibition of Xa generation; without phospholipid).

Row | Binder | fold-reduction in affinity compared with DEGR-IXaWT [fold]
5 | B1 | 67
6 | B2 | 27
7 | B3 | 32
8 | B4 | 41

These binders were tested against T1, factor VIIIa (assay: Kd,app from inhibition of Xa generation; in the presence or absence of phospholipid).

Row | Binder | fold reduced affinity compared with DEGR-IXaWT [fold]
9 | B5 | ~4
10 | B6 | ~2.5

What follows are binders tested against T1, factor VIIIa (assay: Kd,app: DEGR-IXa protein competes with IXaWT for VIIIa, read as inhibition of Xa generation; with phospholipid).

Row | Binder | Kd [nM]
11 | B1 | 8.21
12 | B2 | 2.86
13 | B3 | 5.05
14 | B5 | 0.23
15 | B6 | 0.14
16 | B4 | 7.15
17 | B7 | 0.077

The binders below were run against T1, factor VIIIa (assay: Kd,app: DEGR-IXa protein competes with IXaWT for VIIIa, read as inhibition of Xa generation; without phospholipid).

Row | Binder | Kd [nM]
18 | B1 | 12700
19 | B2 | 5130
20 | B3 | 6180
21 | B5 | 720
22 | B6 | 460
23 | B4 | 7790
24 | B7 | 210
